Measured values from the supplement of paper PMC11417369.
± gives the standard deviation of the averaged measurements. The list shows a part of the results.

Tested on: PfAP2-G AP2 domain (GST-tagged)
Experiment: gcPBM binding intensity (ln(normalized median fluorescence intensity)); higher = stronger DNA binding
Summary of the method: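 Binding intensity values are the highest Masliner-normalised natural-log median intensity among replicate spots of either probe orientation. The binding step lasted 1 h in 1× PBS with 1% milk, 0.2 mg/ml BSA, 0.5% salmon testes DNA and 0.03% Triton X-100, using GST-tagged P. falciparum DNA-binding domains expressed in E. coli on an Agilent 4 × 180k array of primer-extended double-stranded 36-bp intergenic genomic probes plus negative controls. Alexa488 anti-GST antibody and a 488 nm scan detected bound protein.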

Sequence	gcPBM binding intensity (ln)
TAGAAAGAATATAATTGTACAAATGTTGATAGATAA [XGTACX_site7259]	10.7 ± 0.18
ATATATATATATATATATATATATGTTTGATTTTTT [XGTACX_negctrl_site98]	9.88 ± 0.64
ATTTTTCTTTTATTAACACACATATAAATAAATACA [CACACA_site2876]	10.1 ± 0.2
AAATGGTAAGAAAATAAATAAAGTTCTACCACATAA [CACACA_negctrl_site1542]	10.05 ± 0.042
TTTTGCTTTTTTTTTCTTTTTTGTTTTATATATATT [CACACA_negctrl_site103]	9.64 ± 0.071
ACATATGGTATTTAAACACACAAAAAAGAAAGAAAA [CACACA_site991]	10.1 ± 0.21
TATAAACCATAATTAACACACAAAATAAGTTACATA [CACACA_site3227]	9.995 ± 0.049
ATAATAATAAAAATTATACATAAGTATATGCACATA [XGTACX_negctrl_site583]	9.8 ± 0.014
CACAAATAAATACATACACACATATATACTCATATA [CACACA_site4379]	10.03 ± 0.064
TTATAAAGAACACAGACACACAAAGAAAGAACCAAT [CACACA_site4175]	10.4 ± 0.37
TTTTGTCAATTTTAGATTTTTCAATACATGGATATT [CACACA_negctrl_site319]	9.76 ± 0.014
ATATATATATATTTATGTACGAATATGTTTAATTTA [XGTACX_site3986]	10.7 ± 0.57
ATATATATAATAATATGTACGGAAAAAGCTTAAGCT [XGTACX_site5661]	11.1 ± 0.67
AAATATATATATTTACGTACATATATACAAATAGAG [XGTACX_site6067]	11.4 ± 0.81
TGGGCGTCATAATGAACACACAATTATATTATGACT [CACACA_site3910]	9.965 ± 0.078
TTACACAAATAGCTGCATTTATAAAATACAATTAAA [CACACA_negctrl_site241]	9.72 ± 0.13
TTTCCTTCTACAAAAAATTTTATCAAGAGGAAGTAC [CACACA_negctrl_site926]	10.7 ± 0.38
AAAAATAAAGAAACAGGTACGCATATATTAAGATAT [XGTACX_site8097]	11.1 ± 0.58
AATATATTCCACATGTGTACATATATATATATATAT [XGTACX_site8006]	11.4 ± 0.86
ATATGCAAAGAGTATAATCAAAATGTAAATAAATAA [GTGCAC_negctrl_site141]	9.925 ± 0.007
AATATTATTTATATTTGTACACAGTAATATAAAATA [XGTACX_site4884]	11.1 ± 0.68
CCATAGATATTTTATACACACATATAATATATTAAG [CACACA_site4363]	10.1 ± 0.17

Sequence	gcPBM binding intensity (ln)
TGTCACTACAAATGAGTGCATTAAATAATTTGGAAA	10.08 ± 0.042
TTCTAACTCTAACAAGTGCAATATATATACATAATA	10.1 ± 0.18
AAATTTGGCAAACACACACACACACCCACACCCACA [CACACA_site8095]	10.4 ± 0.36
AGTTTATTTGTAAAAAGTACATATTTAAGAAAACTT [XGTACX_site2318]	11.2 ± 0.83
AATATATATCATCACACACACATACATAAATATATA [CACACA_site184]	10.1 ± 0.21
TTTTTTTTTTGATGTTGTACATATATACTATATAAT [XGTACX_site1332]	11.3 ± 0.7
TATATTATATATATGTGTACATATAAATGTAACAAA [XGTACX_site5025]	11.3 ± 0.76
AATACATATAAAAGTACACACACACCCATATATATA [CACACA_site8220]	11.6 ± 0.97
ATAGAATACATATATGAACACACAGAGTTTTAAAAA [CACACA_site8879]	10.15 ± 0.042
TAAATATCTAAAGACTGTACAATTAAATATAAACAT [XGTACX_site1450]	11 ± 0.7
TTTTGTAACCTATGCACGCACACAAGAAAAAAACAA [CACACA_site3776]	10.7 ± 0.59
GAAAATAAAAAAAATAAAAAAAATAAAAAAAATTAT [XGTACX_negctrl_site443]	9.43 ± 0.11
ATACCATAAATATTGTGTACATAAATATGTTAGTAA [XGTACX_site6077]	11.6 ± 1.1
TTTTAGAAATTTACTAAACTTTATATAACTATTGAA [TGCATGCA_negctrl_site280]	9.68 ± 0.014
CATGTTTATGCCGTTTGTACATATATATCTAAAAAA [XGTACX_site4336]	10.9 ± 0.6
CACGTATATATATATACACACACATATATATATGTA [CACACA_site7948]	10.08 ± 0.071
TTTTTGTTCTATATGGTGCATGTTTATATTCGTATT	10.2 ± 0.19
ATTAGCAACATTGATAAATATAAACACACGAAAACA [TGCATGCA_negctrl_site97]	10.115 ± 0.007
AATGAATCCTTATATACACACATTATTATATTATAT [CACACA_site3108]	10.07 ± 0.035
GTTCATATCTTTTGAGCACACATATATATATATAAA [CACACA_site9099]	10.1 ± 0.11
ATGATTATAATTTAAAATATTTTACATAACCATTTC [GTGCAC_negctrl_site297]	9.79 ± 0.099
TTTAGCTATTATAGCTGTACAATGATAAAATAAATT [XGTACX_site6318]	10.7 ± 0.39

Sequence	gcPBM binding intensity (ln)
ATAAGTAAAAATAAAAAAAAAATATATATATATATA [CACACA_negctrl_site1816]	9.82 ± 0.48
TTTTTTATATATACATATATATAAATATATATAACT [GTGCAC_negctrl_site385]	9.59 ± 0.2
ATATTAATAATATATGCATGCATTAACATATTGAAA [TGCATGCA_site951]	9.725 ± 0.064
GTATGTATGTATATATGTACACATTATTATTTAATG [XGTACX_site5802]	11.6 ± 1
ATTGATACATCCAATACACACTACATATAATGATGT [CACACA_site8561]	10.3 ± 0.2
GAGAAAAGGAAATTCACACATATAAAGAAAGATCTA [CACACA_site5420]	9.865 ± 0.064
TTTTTTTTGATATATACACACAATAAATAAATATAA [CACACA_site7400]	10.1 ± 0.29
ATTTATTATTATATCACACATAATATATTAAATGAT [CACACA_site5821]	9.735 ± 0.049
TGTTTGCTTATGTGTTAAATATATATATATATATAT [TGCATGCA_negctrl_site218]	10.1 ± 0.25
ATTTTAGGAAAAAAAAGTACATATAATTTTTTATAT [XGTACX_site6954]	11.4 ± 0.96
CGAACACAAACACAAACACACATCAGATATAAATAT [CACACA_site6736]	9.85 ± 0.014
ATGTTCGATGATAAATGTACAAAAATAATGGAAGTA [XGTACX_site1916]	10.9 ± 0.41
TATAAAAATATTGAAAGTACTTATTAAAATATTATT [XGTACX_site3701]	11 ± 0.64
TTTCCTAGCACATGCACACAAAAAAAAAAAAAAAAA [CACACA_site1404]	10.2 ± 0.55
CTTGCAAAAAGTATATGTACATATATATATATATAT [XGTACX_site5792]	11.2 ± 0.7
TATGGAGAAATAAATAGTACGTATTTTATTTAAAAA [XGTACX_site3129]	11.2 ± 0.76
AAAAATATAAAAATAGCACACATATATACATATATA [CACACA_site7901]	9.83 ± 0.014
TATTCCTAATTGACAACACACACAACAAAAAAGGGA [CACACA_site8350]	10.4 ± 0.33
CTATAATATGGTATTACACACTGTTATAAGTATGGC [CACACA_site7068]	10.02 ± 0.014
TATAAATAGAGACACACACACATATAAATAAATATT [CACACA_site7854]	10.1 ± 0.26
TATATTTCTTCTATAACATGCAGATATATGAAAATA [TGCATGCA_site971]	9.725 ± 0.064
ATATATTTTTTGAATACACACATATTATCTGTAATA [CACACA_site4826]	9.92 ± 0.014

Sequence	gcPBM binding intensity (ln)
ATTATTAACATATATATACACACGAAAAAATTATAT [CACACA_site625]	10.1 ± 0.11
TAATGAAATATTATGTGTACTTAAAAATTATTAAAT [XGTACX_site5261]	11.5 ± 1
AGAATTATTTTATGTTTGCACTTTTTTTTTCTATAA [GTGCAC_site9876]	10.3 ± 0.049
TATATTTAATTATTATGTACTTATAATTTTTGAAAG [XGTACX_site8548]	11.4 ± 0.96
ACATGAAATGTTTAAAGTACATATATAAATTTTTTT [XGTACX_site4519]	11.1 ± 0.7
ATATATAGATAATCAAGTACATAACAAGATATAAGA [XGTACX_site2186]	11 ± 0.64
TACTGATCTTTCTAGGTGCGCTGCTACCATTATCGT [GTGCAC_site9538]	10.2 ± 0.17
AAATGTGAAGTGAATACACACCTAATAAATATAACA [CACACA_site5727]	9.98
TATGAAATATCGTGCACACACGAATAATATAAGAAT [CACACA_site4842]	10.3 ± 0.28
AAAATAAAAAATATAACACACAATAAATATTTATAT [CACACA_site6986]	9.81 ± 0.028
CTTTCCTATTTGACACGTACGAAATTTTACATAAAA [XGTACX_site6689]	10.9 ± 0.55
AAATATATATACACATATATATATATATATATATAT [CACACA_negctrl_site1742]	9.96 ± 0.4
CAAGTATTAATTATGTGTACATATATATATATATAT [XGTACX_site5311]	11.4 ± 0.82
TATATATATAATATTACACACATATATTTATATTTT [CACACA_site3460]	9.82 ± 0.14
ATTTATACATGCTAATGTACTTATTTCACCTATATC [XGTACX_site3120]	11.3 ± 0.96
TATGGTATATACAACACACACACATATGTATAAATA [CACACA_site6562]	10.4 ± 0.24
TATGTATTTATCCACTTACATTTTTACTTTTCCATT [CACACA_negctrl_site1141]	10.02 ± 0.049
TACACAAGCAGACACACACACATATAGATTTATATA [CACACA_site6715]	10.1 ± 0.21
GCCATAAAAATATATACACACATAAAAAAAAATTAT [CACACA_site1176]	10.1 ± 0.31
TATAATGAGGATAATAGTACATATGAATACAAAAAA [XGTACX_site3665]	11.1 ± 0.57
TTAATATTGTATTTCACACATAATTTAATATACTCA [CACACA_site5678]	9.79 ± 0.12
AAAAATAAAAATTGCACACTAAAAAATTACGCACGA [CACACA_site3418]	10.095 ± 0.007
